The text below walks through data of the antibiotic and cytotoxicity screens of Wong et al. (2023).

SMILES strings stand for the structures. The list shows a part of the results.

The subject of this assay is HSkMC (human skeletal muscle cells). As to the kind of experiment: cytotoxicity call (relative viability < 0.9). Particulars: 10 µM.
For `COCC(=O)N(C)C[C@H]1Oc2cc(-c3ccc(OC)cc3)ccc2S(=O)(=O)N([C@H](C)CO)C[C@@H]1C`, the cytotoxicity call is “inactive”.
The result for `Cc1ncc([N+](=O)[O-])n1CC(C)O` (stereo not given) reads “inactive”; that for `C[C@H](CO)N1C[C@H](C)[C@H](CN(C)C(=O)Cc2ccccc2)OCCCC[C@H](C)Oc2ccc(NC(=O)C3CCCCC3)cc2C1=O`, “inactive”; that for `COc1ccc(S(=O)(=O)Nc2ccc3c(c2)C(=O)N([C@@H](C)CO)C[C@@H](C)[C@H](CN(C)Cc2ccc4c(c2)OCO4)OCCCC[C@H](C)O3)cc1`, “inactive”.
Regarding `C[C@@H]1CN([C@@H](C)CO)C(=O)c2cccc(NC(=O)NC3CCCCC3)c2O[C@H]1CN(C)Cc1ccc(-c2ccccc2)cc1`, the cytotoxicity call was “inactive”.
Take `COc1ccc(S(=O)(=O)N(C)C[C@H]2Oc3ccc(NS(C)(=O)=O)cc3C(=O)N([C@H](C)CO)C[C@@H]2C)cc1`: the cytotoxicity call is “inactive”.
With `O=C(C[C@@H]1CC[C@@H]2[C@H](COC[C@H](O)CN2S(=O)(=O)c2ccc(Cl)cc2)O1)NCCN1CCCC1`, the cytotoxicity call was “inactive”.
On to `C[C@@H]1CCCCO[C@@H](CN(C)C(=O)Nc2cccc3ccccc23)[C@H](C)CN([C@H](C)CO)C(=O)c2cc(NC(=O)Nc3ccc(F)cc3)ccc2O1`, for which the cytotoxicity call is “inactive”.
Turning to `C[C@@H]1CN([C@@H](C)CO)C(=O)Cc2cc(NC(=O)Cc3ccccc3)ccc2O[C@H]1CN(C)S(=O)(=O)c1ccc(F)cc1`, the cytotoxicity call was “inactive”.
The result for `C[C@H]1CN([C@@H](C)CO)C(=O)c2cc(Br)cnc2O[C@@H]1CN(C)C(=O)Nc1ccc(F)cc1` reads “inactive”; that for `C[C@@H]1CN([C@H](C)CO)C(=O)CCCn2cc(nn2)CO[C@@H]1CN(C)Cc1cccc2c1OCCCO2`, “inactive”; that for `C[C@@H]1CCCCO[C@H](CN(C)C(=O)Nc2ccc(F)cc2)[C@H](C)CN([C@@H](C)CO)C(=O)c2cc(NS(=O)(=O)c3cccs3)ccc2O1`, “inactive”.
The value for `Cc1ccc(S(=O)(=O)N(C)C[C@H]2OCCCC[C@H](C)Oc3ccc(NC(=O)Nc4ccc(C(F)(F)F)cc4)cc3C(=O)N([C@H](C)CO)C[C@H]2C)cc1` was “inactive”; that for `CCc1c(C)[nH]c(=S)c(C#N)c1C` was “inactive”; that for `C[C@@H]1CN([C@H](C)CO[Si](C)(C)C(C)(C)C)C(=O)c2cc(NC(=O)C3CCCCC3)ccc2O[C@H]1CN(C)C(=O)c1ccc(Cl)cc1` was “inactive”.
Take `Cc1noc(C)c1NC(=O)Nc1cccc2c1O[C@H](CN(C)S(C)(=O)=O)[C@H](C)CN([C@@H](C)CO)C2=O`: the cytotoxicity call was “inactive”.
For `OCc1ccccc1-c1ccccc1`, the cytotoxicity call is “inactive”.
The result for `C[C@@H]1CN([C@H](C)CO)C(=O)c2cc(NS(=O)(=O)c3cn(C)cn3)ccc2O[C@@H](C)CCCCO[C@@H]1CN(C)S(=O)(=O)c1ccccc1` reads “inactive”; that for `C[C@@H]1CN([C@H](C)CO)C(=O)c2cc(NC(=O)Nc3cccc4ccccc34)ccc2O[C@@H](C)CCCCO[C@@H]1CN(C)Cc1ccc2c(c1)OCO2`, “active”.
The value for `C[C@H](CO)N1C[C@H](C)[C@H](CN(C)CC2CC2)Oc2c(NS(=O)(=O)c3cn(C)cn3)cccc2C1=O` was “inactive”; that for `C[C@H](CO)N1C[C@H](C)[C@@H](CN(C)C(=O)c2ccc3c(c2)OCO3)Oc2cc(C#Cc3ccccc3F)ccc2S1(=O)=O` was “inactive”.
The value for `C[C@@H]1CCCCO[C@H](CN(C)Cc2ccc(Cl)c(Cl)c2)[C@@H](C)CN([C@H](C)CO)C(=O)c2cc(NS(=O)(=O)c3cccs3)ccc2O1` was “inactive”; that for `C[C@H](CO)N1C[C@H](C)[C@H](CN(C)C(=O)CN2CCOCC2)Oc2ncc(C#CCN(C)C)cc2C1=O` was “inactive”; that for `CC(C)NC(=O)N(C)C[C@@H]1Oc2ccc(NS(=O)(=O)c3ccc(Cl)cc3)cc2C(=O)N([C@@H](C)CO)C[C@H]1C` was “inactive”.
For the compound `C[C@H]1CN([C@@H](C)CO)C(=O)c2cccc(NC(=O)C3CCOCC3)c2O[C@@H]1CN(C)S(=O)(=O)c1ccc(Cl)cc1`, the cytotoxicity call was “inactive”.
In the case of `C[C@@H]1CCCCO[C@@H](CN(C)CC2CCCCC2)[C@@H](C)CN([C@H](C)CO)C(=O)c2cc(NS(=O)(=O)c3ccc(F)cc3)ccc2O1`, the cytotoxicity call was “inactive”.
The value for `O=C(N[C@@H]1C=C[C@@H](CC(=O)N2CCOCC2)O[C@H]1CO)c1ccccn1` was “inactive”; that for `COc1cc(-c2coc3cc(OC4OC(CO)C(O)C(O)C4O)c(OC)c(O)c3c2=O)cc(O)c1OC` (stereo not given) was “inactive”.
The value for `Cn1cc(N2C[C@]3(CCN(S(C)(=O)=O)C3)CC2=O)cn1` was “inactive”; that for `CS(=O)(=O)N1CCC2(CC1)CN(CCn1cccn1)C(=O)CO2` was “inactive”.
